# Results published in PMC4336329 (PLoS ONE, 2015).
# The whole screen tested about 310,000 compounds, of which about 2,200 (0.71%) showed an effect of 50% or more. The effect is printed as a negative number. The list shows a part of the results.
# Biological target: human ether-à-go-go-related gene (hERG) potassium channel (human, UniProt Q12809)
# Test: primary screen, population patch clamp on CHO cells stably expressing hERG
# Sequence of human ether-à-go-go-related gene (hERG) potassium channel (Q12809 whole entry, looked up): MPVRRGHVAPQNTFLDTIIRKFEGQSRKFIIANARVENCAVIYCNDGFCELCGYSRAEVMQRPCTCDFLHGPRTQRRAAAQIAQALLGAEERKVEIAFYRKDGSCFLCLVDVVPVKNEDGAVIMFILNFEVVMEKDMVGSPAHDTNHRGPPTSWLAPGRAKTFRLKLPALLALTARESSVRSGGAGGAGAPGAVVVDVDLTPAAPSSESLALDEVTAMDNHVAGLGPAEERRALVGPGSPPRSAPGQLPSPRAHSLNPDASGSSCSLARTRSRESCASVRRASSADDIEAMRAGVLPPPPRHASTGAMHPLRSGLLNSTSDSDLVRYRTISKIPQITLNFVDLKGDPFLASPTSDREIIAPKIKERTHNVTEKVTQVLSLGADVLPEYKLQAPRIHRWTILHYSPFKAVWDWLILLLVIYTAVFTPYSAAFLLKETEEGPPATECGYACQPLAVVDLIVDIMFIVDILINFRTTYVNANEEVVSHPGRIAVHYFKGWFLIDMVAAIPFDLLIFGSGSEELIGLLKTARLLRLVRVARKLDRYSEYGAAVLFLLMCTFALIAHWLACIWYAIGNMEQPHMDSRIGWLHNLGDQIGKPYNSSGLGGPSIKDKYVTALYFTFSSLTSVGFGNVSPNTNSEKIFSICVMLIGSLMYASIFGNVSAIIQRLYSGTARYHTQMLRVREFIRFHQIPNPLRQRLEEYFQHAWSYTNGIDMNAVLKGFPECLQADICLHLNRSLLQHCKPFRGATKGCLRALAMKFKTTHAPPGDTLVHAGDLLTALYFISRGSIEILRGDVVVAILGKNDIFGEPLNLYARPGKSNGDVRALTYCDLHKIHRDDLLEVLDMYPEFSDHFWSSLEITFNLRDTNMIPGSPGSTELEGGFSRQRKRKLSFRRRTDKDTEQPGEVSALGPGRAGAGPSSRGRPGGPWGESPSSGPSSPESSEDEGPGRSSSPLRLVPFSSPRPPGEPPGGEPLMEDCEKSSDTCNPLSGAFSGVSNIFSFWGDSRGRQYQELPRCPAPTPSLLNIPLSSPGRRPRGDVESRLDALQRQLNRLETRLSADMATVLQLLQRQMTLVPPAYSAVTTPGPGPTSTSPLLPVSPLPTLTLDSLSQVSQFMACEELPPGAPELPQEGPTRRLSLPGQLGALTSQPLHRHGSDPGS
row,Compound,"hERG current change (%, negative = inhibition) at 1uM"
1,CC1=NN(c2ccccc2)C(=O)/C1=C\c1ccc(Br)s1,4.5%
2,O=C(c1nc2nc(-c3ccccc3)cc(C(F)(F)F)n2n1)N1CCOCC1,27.2%
3,Cc1ccc(C23CC4CC(CC(C(=O)N5CCOCC5)(C4)C2)C3)cc1,7.59%
4,Cc1ccc(C2C3CSCC=C3C(C#N)=C(N)C2(C#N)C#N)cc1 (stereo not drawn),-14%
5,COc1cc2c(c(OC)c1OC)C(=O)CC2,8.41%
6,O=C(c1ccccc1)c1nc2c(n1O)CCCCC2,7.96%
7,COc1ccccc1NC(=O)CSCc1cc(=O)n2c(C)csc2n1,15.6%
8,CCCN1C(=O)c2ccc(C(=O)Nc3cc(C)on3)cc2C1=O,8.19%
9,CCCCCOc1ccc(/C(C)=N/NC2=NCCN2)cc1,8.51%
10,O=c1oc2cc(O)ccc2c2c1CCCC2,10.7%
11,Cc1cccc(C)c1NC(=O)CSc1nnc(NC(=O)CN2CCOCC2)s1,11.1%
12,Oc1cccc(C2c3[nH]c4ccccc4c3CCN2Cc2ccoc2)c1 (stereo not drawn),5.62%
13,O=C(NCc1cccnc1)c1ccc(COc2ccc3c(c2)CCC3)o1,7.24%
14,Cc1cccc(NC(=O)c2cc(-c3cc(C)ccc3O)n[nH]2)c1,5.2%
15,CCc1ccc(N2CCN(CCNC(=O)Nc3ccc(OC)cc3)CC2)cc1,15.5%
16,O=c1[nH]c2ccc(S(=O)(=O)Nc3ccc(-c4nnc5n4CCCCC5)cc3)cc2o1,11.7%
17,FC(F)(F)C1=CC(c2ccc(Cl)cc2)=NCCN1,2.84%
18,COC(=O)c1c(C(=O)OC)c(-c2ccccc2)n2c1CS(=O)(=O)C2,14.5%
19,O=c1[nH]nc(Cc2ccc(Cl)cc2Cl)c2ccccc12,14.1%
20,Cc1ccc(C)n1CCN1CCN(C(=O)c2ccco2)CC1,11.5%
21,O=[N+]([O-])c1cc(S(=O)(=O)NC2=NCCCCC2)ccc1NCC1CCCCC1,12.4%
22,Cc1cc(OCCCCCNCCO)cc(C)c1Cl,-8.25%
23,O=C1CCC(=O)N1CCCCCc1nc(-c2ccccc2)no1,2.96%

row,Compound,"hERG current change (%, negative = inhibition) at 1uM"
1,COc1ccc(CNC(=O)C2CCCN(c3ncnc4c3nc3n4CCCCC3)C2)cc1 (stereo not drawn),-2.33%
2,CC(C)CN(C(=O)COC(=O)CCc1c[nH]c2ccccc12)C1CCS(=O)(=O)C1 (stereo not drawn),6%
3,O=C(NCn1cnccc1=O)c1ccccc1,20.9%
4,CC(CC(=O)O)CC(=O)Nc1cc(C(F)(F)F)cc(C(F)(F)F)c1 (stereo not drawn),26.7%
5,CCO/C(C)=N/n1c2nc3ccccc3nc2c2c(=O)n(C3CCCC3)c(C)nc21,7%
6,O=S(=O)(c1cccc2nsnc12)N1CCCC1,4.49%
7,Cc1c(C(=O)N2CCNCC2)oc2ccccc12.Cl,16.5%
8,CC1(C)Cc2ccccc2-c2nnc(-c3ccc4ccccc4n3)n21,7.4%
9,COc1cccc(CN2CCN(C(=O)c3ccco3)CC2)c1OC,1.41%
10,O=C(Nc1ccc(S(=O)(=O)NC2=NCCCCC2)cc1)c1ccc(Cl)cc1Cl,12%
11,Cc1ccc(NC(=O)Nc2nc(-c3ccc(C)s3)cs2)cc1,8.43%
12,Cn1c(O)c(/C=C2\C=Nc3ccccc32)c(=O)n(C)c1=O,8.77%
13,O=C(CSc1nccc(=O)[nH]1)c1c[nH]c2ccccc12,6.07%
14,COc1ccc(Br)c(C(=O)NC2CCCC2)c1,13.6%
15,COc1cc2c(cc1OC)CN(C(=O)CCCOc1ccc(Cl)cc1Cl)CC2,15.6%
16,CCN(CC)S(=O)(=O)c1cccc(NC(=O)COC(=O)CCC(=O)c2ccc(F)cc2)c1,13.5%
17,COc1ccc(C2(O)CN(c3ccc(C)cc3)C3=[N+]2CCCC3)cc1.[Br-] (stereo not drawn),0.777%
18,CCn1c(SCC(=O)O)nnc1-c1ccc(S(=O)(=O)N2CCCC2)cc1,13.3%
19,CC(C)Cc1nnc(NS(=O)(=O)c2ccc([N+](=O)[O-])cc2)s1,10.4%
20,COC(=O)C[C@H]1c2ccc(C(F)(F)F)cc2S(=O)(=O)N1Cc1ccccc1,-0.0746%
21,CC(=O)Nc1ccc(-c2sc(Nc3ccccc3)n[n+]2C)cc1.[Cl-],14.9%
22,Cc1ccc(C2(C)NC(=O)N(CC(=O)Nc3ccc4c(c3)CCC4)C2=O)cc1 (stereo not drawn),10.8%
